The supplement of paper PMC11417369
Some of the results follow.

Test system: PF3D7_0420300 AP2 domain 1 (GST-tagged)
Test: gcPBM binding intensity (ln(normalized median fluorescence intensity)); higher = stronger DNA binding
Method in brief: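 In this array assay, P. falciparum DNA-binding domains with a GST tag, expressed in E. coli, were applied for 1 h to primer-extended double-stranded 36-bp intergenic genomic probes and negative controls on an Agilent 4 × 180k array. Bound protein was visualised with Alexa488 anti-GST antibody at 488 nm. Binding intensity is the highest Masliner-normalised natural-log median intensity across replicate spots of either probe orientation.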

Row | Sequence | gcPBM binding intensity (ln)
1 | TATATATATATATATATATATACAAATATATATTAT [CACACA_negctrl_site1729] | 8.98
2 | ATAAAAGATATTTTTACACACTTTTGATGAGATCGT [CACACA_site3053] | 9.24
3 | ATACCAACATATTATACACACCTTTATATTTTTTTT [CACACA_site5217] | 9.78
4 | GGTTGTATAAGTTTTTGTACATATATATATATATAT [XGTACX_site7487] | 9.51
5 | TTCAAGGTTTTAGATTGTACAATTATTATATATATA [XGTACX_site8982] | 9.28
6 | TATAAATAAAAACACACACACACATATATATATATA [CACACA_site2268] | 9.94
7 | TATAAATATAAATATACACACATATTTATATTTATA [CACACA_site7053] | 9.29
8 | CTCTATAAATGCTGCACACACATTTAATTATTTAAG [CACACA_site2582] | 9.51
9 | TTTTACAATGAAAGGTGTACAAGTAACAGTAGAACA [XGTACX_site1528] | 9.39
10 | AAATGAAATACATCCTGTACATAGTAATGCTAACAA [XGTACX_site6600] | 9.23
11 | TATTTTTATATTTTTGCACACATTCTTTACTCTTCA [CACACA_site2211] | 9.76
12 | AAAAATTTTATATTCACACACATATATATATATATA [CACACA_site624] | 9.49
13 | GATATATATTAATATACACACACACCGATATATATA [CACACA_site8462] | 10
14 | AACAAATACAGACACACACACACACTAATAAAAAAA [CACACA_site8067] | 10.3
15 | TTTATATTTTATAAATTATTCATAAATATATTTGTA [TGCATGCA_negctrl_site175] | 8.83
16 | AATAAATAGATAAGCACACAAGCATATAGACATATA [CACACA_site222] | 9.65
17 | AAATTCCACCAACACACACACATATAAATAAATAAA [CACACA_site1233] | 9.96
18 | TTTTGAAACATATGATGTACACGAACATTTAAAAAA [XGTACX_site474] | 9.06
19 | ATAAATAAAGGACACACACACACACTAGAAAAAAAA [CACACA_site5450] | 10
20 | AAAATAAAATTAGTTGCATGCAACTTAAACAGAAAT [TGCATGCA_site860] | 9.51
21 | TTGTGCTTGATATCACGGACAAGCTCATATTATATA [XGTACX_site4553] | 9.02
22 | TATATTATTAAGATATGTACATAATTATAAATTTAA [XGTACX_site6848] | 9.09

Row | Sequence | gcPBM binding intensity (ln)
23 | ATGAAAAAATTTATATGTACTTAAAATATAATCATA [XGTACX_site1228] | 8.98
24 | GCGTTATTAAATAATTCACACACATATATATATATA [CACACA_site8711] | 9.72
25 | GAACGCCATTCACATAAAGGGATACATAAATAAATA [XGTACX_negctrl_site330] | 8.98
26 | AAGAAAAACTTTACGTGTACCAAACGTCATGCCAAC [XGTACX_site2575] | 9.35
27 | TTCTTGTATTTTCATAGTACATATAATGTCGTATTA [XGTACX_site600] | 9.45
28 | AATCACAAATAAAATAATATGACACAATATAAAATA [CACACA_negctrl_site537] | 9.5
29 | TACTTACACTGTTTTTGTACTTATTTCCCTTTTATT [XGTACX_site2158] | 9.84
30 | TAATTTCTTATGTATTGTACAAATAATGTATGATAT [XGTACX_site270] | 9.2
31 | AAATATTTATAGGTTTGTACTTATAAATAAAAAAAA [XGTACX_site7360] | 9.1
32 | TTTATAAAAATGAACACACACATATATATATATATA [CACACA_site3493] | 9.41
33 | AATATGAAAAGATGAACAACAAAATGGAGAACAATA [GTGCAC_negctrl_site612] | 9.74
34 | ATACAAAATTTTTAAGAACACACAAAAATGTACTAT [CACACA_site8817] | 9.35
35 | TGAGGTAACTAAATATGTACGTAACGAAGATACATA [XGTACX_site8231] | 9.4
36 | TTTATTATACAAAATTGTACTTTATAATTTTATGTA [XGTACX_site5846] | 9.08
37 | AAATATTACGGAATAAAGAGCTTTTAAATAATTTTA [CACACA_negctrl_site1700] | 9.03
38 | AGAAACCTTGTTAGTTAGCATATATATATATATATA [CACACA_negctrl_site372] | 9.11
39 | AAATATAAACGGCACACACACAAAAAAAGAAAAAAA [CACACA_site649] | 10.2
40 | TATTTTATACATATTTTACACACTAATATATACATA [CACACA_site7998] | 9.42
41 | AAATGTTATAACTCTTGAAAAAACAAAATATCATCA [CACACA_negctrl_site1156] | 9.12
42 | ACTTTACAATATATATGTACATATTAATAAACATAT [XGTACX_site3689] | 9.28
43 | GAGTTTTTTTAATGATGTACATTTTAAAAATAAACG [XGTACX_site1036] | 8.86
44 | AAAATAATATATGTATGTACATATACACATATAGAA [XGTACX_site2218] | 9.29

Row | Sequence | gcPBM binding intensity (ln)
45 | TCATATATCATAACAGTGCAAAAAAAAAAAAATTAT | 9.26
46 | AAAAAAAAAAAAGAAACACACATATATATATATATA [CACACA_site140] | 9.23
47 | GTTTGATTAAACTTGACACACATATATATAAATATA [CACACA_site1784] | 9.29
48 | AGAAAATATACAAAACGTACTTATATATTATATCTA [XGTACX_site3104] | 9.12
49 | GTTAGAGGGAAAAAGAGTACATATATGTGGATAATT [XGTACX_site2064] | 9.26
50 | GTTGCGTATATATACACACATACATATATATATATA [CACACA_site1607] | 9.45
51 | TTATATAATAAAAATTGTACATATTATATATATATT [XGTACX_site3427] | 9.09
52 | TAATATTCAATTATACGTACACATATATATATATAT [XGTACX_site4245] | 9.26
53 | ATTCATTCATATGTTACACACACACGCCCACATAAA [CACACA_site7513] | 10.3
54 | TTATATATATATATATATATTTACATAATAATATGT [GTGCAC_negctrl_site388] | 9
55 | TAAAAAAAGGTTATTGGTACACACATATGTATATAT [XGTACX_site1029] | 9.55
56 | TAAACTTTCCAGTGTTGTACATAATAATTATTATAT [XGTACX_site8896] | 9.23
57 | AAAGATATGAAATATACACACTTCTTTGGTATTATT [CACACA_site6352] | 9.42
58 | TATTTATGTATATGCTGTACGCATTTGTGAAACATA [XGTACX_site4688] | 9.06
59 | AACCAATTAGAAGGATCCAGAACTTATTTGTTTTTA [CACACA_negctrl_site1744] | 9.11
60 | TACAAGCCCAATTCAAGTACATATATATATATATAT [XGTACX_site5569] | 9.21
61 | AGTTTGTCAATCAACACACACCTATTTATTATATAT [CACACA_site6030] | 9.59
62 | ATATTTCGTCTAAAAAGTACACAACAATAAAAAGTA [XGTACX_site6668] | 9.41
63 | AAAAAACACAGACACACACACATATACATACATACA [CACACA_site2666] | 10.2
64 | TTTTTTAAATAATATTGTACAAAAAATGTATAAATA [XGTACX_site3010] | 8.98
65 | TTAGGTTTATACACTACACACATTATTCATAAAAAA [CACACA_site871] | 9.43
66 | TATATATATTTAAGGTGTACATAAATAACAAAATAT [XGTACX_site2641] | 9.42

Row | Sequence | gcPBM binding intensity (ln)
67 | AAGTGTATACAGAAGAGTACAAACAATTTTTTTCTT [XGTACX_site7387] | 9.29
68 | AAAATTATAAATCTTGCACACAAAAAAAATAATAAA [CACACA_site8771] | 9.44
69 | TTTTCATTTATGTATATATTTATTTTGATTTAATGT [GTGCAC_negctrl_site607] | 9.29
70 | AATTATTTTATGTGAGGTACACCACACATGAAGGGG [XGTACX_site8450] | 9.46
71 | TAAATATATTCAATCACACACATTCGTTTTTTTTTT [CACACA_site234] | 9.6
72 | TATTGTTATGTCGTTATTAACTTTCTTTAATTAATT [CACACA_negctrl_site174] | 9.47
73 | AAATATTCATAGTATACACACATTTATATATAATCA [CACACA_site771] | 9.45
74 | TGAAAGTTCAATAATTGTACATGTGGAAATTCATAC [XGTACX_site1378] | 9.24
75 | ATAAAAAAATAAATTAGTACATATATATATATATAT [XGTACX_site6971] | 9.13
76 | TTACGCATACTAATTACACACAAATAGATGAATATA [CACACA_site1338] | 9.43
77 | ATTTTTTTTTCTTTCGCACACGTGAAAGAATTTCTA [CACACA_site2052] | 9.11
78 | TTAAATTAAAACAAATGTACAAAGTGCATATTTTTT [XGTACX_site8143] | 8.98
79 | ATAATTTAATACTAGTGTACAGAAAAAAAAAAAAAA [XGTACX_site6756] | 9.09
80 | GTTGAACATAGATGCACACACATAAAATAAAAAAAA [CACACA_site5353] | 9.6
81 | ACATATATATATAAATATATATATATATAAATATAT [CACACA_negctrl_site895] | 8.96
82 | TGTTTAAATTTTTTGTTTTTTTTTTTATAAAGCAAA [TGCATGCA_negctrl_site313] | 8.91
83 | TATATTTTTTTAAAAAGTACTTTGTATATATATATA [XGTACX_site1300] | 9.05
84 | TGAAGGTCAGTTCACAGTACCCAGTAACTCTACGGA [XGTACX_site2554] | 9.06
85 | TTGTTGTTATTTAAAACACACATCAATCATCTTAAC [CACACA_site1142] | 9.22
86 | TAATATATATTATTATGTACATATATTGATTCCTTG [XGTACX_site6830] | 9.19
87 | TATTTATTAATATGTACACACATCAACCATATTAAC [CACACA_site7001] | 9.59
88 | TTCTTATATATATACACACACAAAATATCTACAATG [CACACA_site736] | 9.79
